According to PubChem BioAssay AID686978 (National Center for Advancing Translational Sciences (NCATS), 2013):
The campaign covered roughly 420,000 compounds. About 64,000 (15%) were called active. This list was built around the results that the source calls inconclusive (neither active nor inactive); the mix of calls is not that of the screen. Calls come from the whole dose curve; as a rule, active = well fitted inhibition curve with a large enough effect; inconclusive = small, poorly fitted or top-dose-only effect; inactive = flat fitted curve, though single readings scatter. Potencies of inconclusive entries are left out as doubtful fits.

experiment: qHTS for Inhibitors of human tyrosyl-DNA phosphodiesterase 1 (TDP1): qHTS in cells in absence of CPT; conditions: DT40 Tdp1-/- hTDP1 cells, no CPT, ATP luminescence, 48 h; series mostly up to 46.2 µM; note: nearly all actives have a fitted effect of over 55% in size
How it was run: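 No-CPT arm: Tdp1-/-;hTDP1 DT40 cells (400/well) plus compounds, incubated ≥48 hr at 37 °C. Readout CellTiter-Glo luminescence.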
Potency is the fitted concentration of half-maximal effect; tags give direction and shape of the fitted curve.

**Q.** Which Potency does the source give for `COc1cc(NC(=O)CN(C)S(=O)(=O)c2ccc3c(c2)CC(C)N3C(C)=O)cc(OC)c1OC` (stereo unspecified) here?
**A.** inconclusive [inhibitor, single point]

**Q.** With `COc1cccc(OC)c1C(=O)Nn1c(-c2cccs2)nc2ccccc2c1=O` as the molecule, how does the Potency read?
**A.** inconclusive [inhibitor, partial curve]

**Q.** With `CCn1c(C(=O)Nc2cc(C)cc(C)c2)cc2sc(Cl)cc21` as the molecule, how does the Potency read?
**A.** inconclusive [inhibitor, partial curve]

**Q.** Which Potency does the source give for `OC1C2COC(O2)[C@H](O)C1O` (stereo partly specified) here?
**A.** inactive

**Q.** With `C=CCn1c(=O)c2c3c(sc2n2c(Nc4ccccc4)nnc12)CCCC3` as the molecule, how does the Potency read?
**A.** active: 10 µM

**Q.** With `Cc1ccc(NC(=O)CSc2nnc(-c3cc4occc4n3C)n2-c2ccccc2C)cc1F` as the molecule, how does the Potency read?
**A.** active: 16.4 µM

**Q.** With `CSc1ccc(C#N)cc1NC(=O)c1ccc(Cl)cc1` as the molecule, how does the Potency read?
**A.** inactive

**Q.** Which Potency does the source give for `COc1ccc(S(=O)(=O)N2CCOCC2)cc1NC(=O)CSc1nnc(C2CC2)n1N` here?
**A.** inactive

**Q.** With `CCOC(=O)CN(C)C(=O)CCc1nnc(-c2ccsc2)o1` as the molecule, how does the Potency read?
**A.** inactive

**Q.** Which Potency does the source give for `CSc1ccccc1NC(=O)CCS(=O)(=O)c1nc(-c2cccs2)cc(C(F)(F)F)n1` here?
**A.** active: 11.6 µM

**Q.** For `Cc1ccc(/C=N/NC(=O)c2ccc3ccccc3c2)s1`, which Potency is on record?
**A.** active: 0.82 µM

**Q.** Which Potency does the source give for `Cc1cccc2nc(CNC(=O)CC3C(=O)NCCN3Cc3cccc(F)c3)cn12` (stereo unspecified) here?
**A.** inactive

**Q.** For `O=[N+]([O-])c1ccc(-c2cc(-c3ccncc3)nc3ccc4ccccc4c23)cc1`, which Potency is on record?
**A.** inactive

**Q.** Which Potency does the source give for `COc1ccc(C(CNC(=O)C2CCN(S(=O)(=O)c3ccc(F)cc3)CC2)N(C)C)cc1` (stereo unspecified) here?
**A.** inactive

**Q.** For `Cc1ccc(S(=O)(=O)N2CCN(C(=O)COC(=O)/C=C/c3ccc(OC(F)F)cc3)CC2)cc1`, which Potency is on record?
**A.** active: 20.6 µM

**Q.** Which Potency does the source give for `CC1CN(c2nc3ccccn3c(=O)c2/C=C(\C#N)S(=O)(=O)c2ccccc2)CC(C)O1` (stereo unspecified) here?
**A.** inconclusive [inhibitor, single point]

**Q.** For `COc1cccc(/C=C/C(=O)Nc2ccc(OC)nc2)c1`, which Potency is on record?
**A.** inconclusive [inhibitor, single point]

**Q.** Which Potency does the source give for `O=C(NNc1ccccc1[N+](=O)[O-])Nc1ccc(F)cc1F` here?
**A.** inconclusive [inhibitor, single point]

**Q.** With `Cc1cc(C)nc(S[C@H]2C[C@@H](C(=O)N3CCN(c4ccccc4F)CC3)N(Cc3ccccc3C(F)(F)F)C2)n1` as the molecule, how does the Potency read?
**A.** inconclusive [inhibitor, single point]

**Q.** With `O=C(N/N=C/c1cc([N+](=O)[O-])cc([N+](=O)[O-])c1O)/C(=C\c1cccs1)NC(=O)c1ccccc1` as the molecule, how does the Potency read?
**A.** inactive

**Q.** For `COc1cccc(NC(=S)NNC(=O)c2c([N+](=O)[O-])c(C)nn2C)c1`, which Potency is on record?
**A.** inconclusive [inhibitor, single point]
